Data reported in PubChem BioAssay (NCI).
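The compound was tested at five concentrations on cells cultured in 96-well plates, with a 48-hour exposure period. Here, GI50 denotes the concentration required for 50% inhibition of growth. The concentration for full growth arrest is given as TGI.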

Tested on: NCI-H322M lung
Assay: NCI anticancer screen, dose series, 48 h

Row | SMILES | TGI [µM] | GI50 [µM]
1 | CCOC(OC(C)=O)[C@@H]1C=C[C@H](C)N(c2ccc([N+](=O)[O-])cc2)O1 (some centres not stated) | 31.4 | –
2 | C=C(C)C12CC3CC(/C(=N/O)C(C1)/C3=N\O)[C@@]2(C)O (some centres not stated) | > 100 | –
3 | C=CN(C(=O)N1CCN(c2cc3c(cc2F)c(=O)c(C(=O)O)cn3C2CC2)CC1)c1nc(-c2ccc(OC)cc2)cs1 | > 100 | 2.52
4 | CC1=C(C(=O)OC2CC3CCC2(C)C3(C)C)C2Nc3ccccc3N(C)C2O1 (configuration not stated) | 9.62 | –
5 | CCN1CCC(O)(c2ccc(Oc3ccc(Cl)cc3)cc2)C(C(=O)c2ccc(Oc3ccc(Cl)cc3)cc2)C1 (configuration not stated) | 29.2 | –
6 | Cc1cc(S(=O)(=O)NC2=NCc3nc4ccccc4n32)c(S)cc1Cl | 75.3 | –
7 | CC(=O)OC[C@H]1CN(OC(C)=O)C[C@@H](n2cc(C)c(=O)[nH]c2=O)O1 | > 100 | –
8 | COc1ccc(/C=C\c2cc(OC)c(OC)c(OC)c2)cc1OCC(=O)Nc1nc2ccc(F)cc2s1 | > 100 | > 100
9 | O=C1C2C(C(=O)N1c1ccccc1)C1(c3ccccc3)CCC2(C(=O)c2ccccc2)O1 (configuration not stated) | > 10 | –
10 | N#C/C(=C\c1ccc(F)cc1)c1nc(-c2cc3ccccc3oc2=O)cs1 | > 100 | –
11 | COc1ccc2c(c1)C(=O)c1c-2n(CCCN(C)C)c(=O)c2ccccc12 | 9.29 | 0.636
12 | OCC1C(OCc2ccccc2)C(OCc2ccccc2)C(OCc2ccccc2)CN1Cc1ccccc1 (configuration not stated) | 70.5 | –
13 | C=CCC1(CN(C)C)CC/C(=C\c2ccc(OC)cc2)C1=O (configuration not stated) | > 100 | –
14 | Cc1ccc(C)n1-c1ccccc1C1C=Cn2c(=O)nnc3c(OC(C)C)c(OC(C)C)c(O)c1c32 (configuration not stated) | > 100 | –
